# Data reported in the supplement of paper PMC3334620.
# The full ranking holds about 33,000 sequences; the median of “E-score (-0.5 to 0.5)” is about -0.041, and the highest 2% start at about 0.37. The list shows a part of the results.
# Target: T1, Ecm22 (UniProt Q05958)
# T1 sequence: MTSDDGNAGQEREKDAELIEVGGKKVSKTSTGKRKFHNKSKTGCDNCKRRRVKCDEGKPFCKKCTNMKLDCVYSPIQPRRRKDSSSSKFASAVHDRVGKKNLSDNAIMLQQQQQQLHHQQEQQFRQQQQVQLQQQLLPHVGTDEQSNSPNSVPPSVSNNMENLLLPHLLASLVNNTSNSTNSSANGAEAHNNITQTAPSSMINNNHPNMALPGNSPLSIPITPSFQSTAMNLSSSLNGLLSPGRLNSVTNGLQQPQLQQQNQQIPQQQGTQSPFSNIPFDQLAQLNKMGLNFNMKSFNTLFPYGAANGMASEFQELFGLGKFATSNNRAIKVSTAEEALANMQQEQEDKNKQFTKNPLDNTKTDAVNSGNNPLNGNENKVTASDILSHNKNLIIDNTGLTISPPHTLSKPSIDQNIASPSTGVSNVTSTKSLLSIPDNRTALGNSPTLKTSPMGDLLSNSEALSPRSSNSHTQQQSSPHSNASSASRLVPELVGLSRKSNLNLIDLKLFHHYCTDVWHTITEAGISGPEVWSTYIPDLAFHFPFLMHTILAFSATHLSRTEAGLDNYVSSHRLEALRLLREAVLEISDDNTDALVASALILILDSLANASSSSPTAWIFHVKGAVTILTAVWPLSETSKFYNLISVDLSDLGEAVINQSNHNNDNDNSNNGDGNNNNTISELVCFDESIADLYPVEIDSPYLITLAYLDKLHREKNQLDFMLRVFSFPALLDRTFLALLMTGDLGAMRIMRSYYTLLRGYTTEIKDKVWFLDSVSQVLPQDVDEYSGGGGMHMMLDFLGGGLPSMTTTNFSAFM
# Assay: PBM E-score (8-mer binding enrichment) (E-score (-0.5 to 0.5)); higher = stronger / more preferred TF binding; most listed sequences are background and not binding sites
# Settings: protein concentration: 200 nM; construct: GST-full length
# Method in brief: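 Detection of bound protein used fluorescent anti-GST, with scans normalised by masliner. The proteins were GST-tagged yeast transcription factors applied at about 100-200 nM to universal all-10-mer Agilent arrays made double-stranded by primer extension. Each ungapped eight-base word, pooled with its reverse complement, was scored with an E-score from the Universal PBM Analysis Suite.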
row,Sequence,PBM E-score
1,GCCAAAAC,-0.214
2,CTGATTTC,0.0764
3,CAGGGCCA,-0.165
4,ACGATCCT,0.255
5,AACGCTAT,0.0555
6,ACTGTCCC,-0.0917
7,AAGAGGGC,-0.297
8,TAGTCGCA,0.0835
9,CGAATGCG,0.294
10,ATCGACCC,-0.0324
11,GGCTGTAC,0.0838
12,GGGCTGCA,-0.172
13,AAGGATGG,-0.0229
14,GGTAATGA,-0.0284
15,CAAATTAG,0.0376
16,AAATGTTA,-0.137
17,GATGCGGA,-0.0372
18,CGTCCGCC,-0.111
19,CCAGATCA,-0.129
20,GGGTGCAC,-0.156
21,CCTGGAAC,0.0615
22,ATAATACC,0.0219
23,GTCTCTCA,-0.0854
24,AGGTCAAC,-0.0536
25,CCTGGCCA,-0.235

row,Sequence,PBM E-score
1,GCTAGAAC,-0.156
2,ATCGTCGA,-0.0956
3,ACCGATAG,0.0873
4,CCGGACCG,0.157
5,TACAAAGA,0.126
6,AGCAATCC,-0.186
7,GCTTGAAC,0.148
8,CCGGCGGA,-0.135
9,CATCAGAG,-0.126
10,CTCGGGAC,0.101
11,ACGGTGCA,0.205
12,ACTGGGCG,-0.237
13,TACTGTGA,0.0305
14,ACGTTGTA,0.0925
15,GGGACACC,-0.162
16,CAAGTGCC,-0.23
17,TCAAGGCA,-0.337
18,GCAATGGC,-0.202
19,CCTCGGAG,-0.0375
20,AGCCAGAA,-0.255
21,AGACAGTC,-0.0903
22,AACTGAAG,0.00501
23,CAATATTC,0.00068
24,ATGCGGGG,-0.176
25,CCAGGAAC,0.0894

row,Sequence,PBM E-score
1,CTCATTTA,-0.0637
2,CAGGATAA,0.0292
3,AGGTCCAA,-0.196
4,AACGGATT,0.195
5,CGCAAGAC,-0.0635
6,AGGAGACG,0.0819
7,GCGGGATA,0.12
8,ATACATAA,0.00156
9,GCCATATA,0.0904
10,CCACACAG,-0.118
11,CTTAAGTA,-0.0092
12,CCAATTCA,-0.0121
13,GGTAAATA,-0.0365
14,CCTGTACA,-0.174
15,ACGGAGGG,0.167
16,CATGTGCA,-0.197
17,AGCATGGC,-0.175
18,AGTTACCA,-0.0635
19,GCTAGACC,-0.161
20,CATAGAAA,0.0585
21,GTTACGTA,0.146
22,ATGCAGGA,-0.144
23,AGCTCCCT,-0.0989
24,GCTCTGGA,0.0517
25,AGCGATCC,0.0541

row,Sequence,PBM E-score
1,CAGGCATG,-0.342
2,AACGATGT,0.396
3,CAGCGACG,-0.028
4,CCAAAGAC,-0.255
5,ATAACCAG,-0.0139
6,ATCGCCAG,-0.0629
7,AAGCGTAG,-0.011
8,AATGAGAT,-0.0616
9,GTAGATAA,0.0425
10,ATATCAGA,-0.0265
11,TCCTCCGA,-0.0815
12,CGTGTTTC,-0.0946
13,TCGCCGAA,0.107
14,ACACAAGT,0.0206
15,TAAGTCCA,-0.146
16,CCAGATGC,-0.128
17,ATTCTCTA,-0.0255
18,GACGCCCC,-0.0249
19,GATCGTCA,-0.114
20,GGTTTATA,0.152
21,AAGAGCAG,-0.219
22,ACTCGGAT,0.318
23,AAGCTATG,-0.0404
24,GCACAACA,-0.133
25,TCGCTCCA,0.311

row,Sequence,PBM E-score
1,ACCACTGC,-0.25
2,GGTCGCTA,0.157
3,AGGACGCA,-0.0759
4,CCCCGCGG,-0.0464
5,CCGGTGTC,-0.166
6,ACTTGGTG,-0.156
7,ACAGCGTG,-0.00986
8,AGAGAACT,0.0722
9,CGCACGAA,0.175
10,AGCCCGAA,-0.104
11,CAAGTCGA,-0.158
12,GACTTCAA,-0.197
13,CATTTTAA,-0.2
14,CCGCGATA,0.206
15,AGCTCCAG,-0.0176
16,GCCGGTTA,0.0824
17,GCACGAGA,0.127
18,CACGTGAC,-0.157
19,CAATTAGA,0.0315
20,AATAATCA,0.11
21,CTCTTCAC,-0.00606
22,CCATCGGC,-0.091
23,GCTTTTGA,-0.115
24,CATCATGG,-0.191
25,ACGTGAGT,-0.116

row,Sequence,PBM E-score
1,GAAGTATC,0.0371
2,ACTGGGAA,-0.106
3,AAGTTATG,-0.0511
4,ATCTACGA,0.304
5,CAACCAGG,-0.193
6,TACGACCA,0.449
7,AGAGCACA,-0.154
8,ACCTATAT,0.184
9,AATCGCTC,0.0687
10,CCGGTAGA,-0.0124
11,CAAGCGAG,0.302
12,CATCCCCA,-0.246
13,GCATAGAA,-0.0745
14,AATAGAGA,-0.0831
15,ACGAACGG,0.392
16,ACGTCTCG,0.292
17,GTGGAGTA,0.0107
18,CATTAATA,0.0103
19,ACCCAGTA,-0.111
20,AACCGTGG,-0.277
21,CCGCGCGC,0.0774
22,CTGCTGCC,-0.217
23,ATCTCTTA,0.196
24,GGTAGACA,-0.207
25,AGAGTCCC,-0.189

row,Sequence,PBM E-score
1,ATGTGCAC,-0.204
2,AAGCAGCT,-0.112
3,AAAGAGTC,-0.109
4,ATTTACAG,-0.0365
5,AAGTGTCT,-0.0703
6,ACAGATTC,-0.121
7,GCACCGCA,0.0935
8,GTACATAA,0.145
9,AGGTGAAG,-0.0236
10,TGTCGACA,0.00949
11,GCCGCCCC,-0.14
12,AAGGAATT,-0.126
13,ACTGCAGC,-0.108
14,ATCGGCAA,-0.0457
15,ACCGCCAC,-0.0833
16,CATCAGCC,-0.121
17,AACGCGGG,0.171
18,AATGAAAC,-2e-05
19,CACCGAGG,0.0851
20,GATCAAGA,-0.0614
21,ACCCTGGG,-0.0333
22,ACCTCCTG,-0.15
